The campaign covered roughly 310,000 compounds. About 2,200 (0.71%) showed an effect of 50% or more. Effects have a minus sign here. The list shows a part of the results.
Biological target: human ether-à-go-go-related gene (hERG) potassium channel (human, UniProt Q12809)
Assay: primary screen, population patch clamp on CHO cells stably expressing hERG

Sequence of human ether-à-go-go-related gene (hERG) potassium channel (Q12809 whole entry, looked up): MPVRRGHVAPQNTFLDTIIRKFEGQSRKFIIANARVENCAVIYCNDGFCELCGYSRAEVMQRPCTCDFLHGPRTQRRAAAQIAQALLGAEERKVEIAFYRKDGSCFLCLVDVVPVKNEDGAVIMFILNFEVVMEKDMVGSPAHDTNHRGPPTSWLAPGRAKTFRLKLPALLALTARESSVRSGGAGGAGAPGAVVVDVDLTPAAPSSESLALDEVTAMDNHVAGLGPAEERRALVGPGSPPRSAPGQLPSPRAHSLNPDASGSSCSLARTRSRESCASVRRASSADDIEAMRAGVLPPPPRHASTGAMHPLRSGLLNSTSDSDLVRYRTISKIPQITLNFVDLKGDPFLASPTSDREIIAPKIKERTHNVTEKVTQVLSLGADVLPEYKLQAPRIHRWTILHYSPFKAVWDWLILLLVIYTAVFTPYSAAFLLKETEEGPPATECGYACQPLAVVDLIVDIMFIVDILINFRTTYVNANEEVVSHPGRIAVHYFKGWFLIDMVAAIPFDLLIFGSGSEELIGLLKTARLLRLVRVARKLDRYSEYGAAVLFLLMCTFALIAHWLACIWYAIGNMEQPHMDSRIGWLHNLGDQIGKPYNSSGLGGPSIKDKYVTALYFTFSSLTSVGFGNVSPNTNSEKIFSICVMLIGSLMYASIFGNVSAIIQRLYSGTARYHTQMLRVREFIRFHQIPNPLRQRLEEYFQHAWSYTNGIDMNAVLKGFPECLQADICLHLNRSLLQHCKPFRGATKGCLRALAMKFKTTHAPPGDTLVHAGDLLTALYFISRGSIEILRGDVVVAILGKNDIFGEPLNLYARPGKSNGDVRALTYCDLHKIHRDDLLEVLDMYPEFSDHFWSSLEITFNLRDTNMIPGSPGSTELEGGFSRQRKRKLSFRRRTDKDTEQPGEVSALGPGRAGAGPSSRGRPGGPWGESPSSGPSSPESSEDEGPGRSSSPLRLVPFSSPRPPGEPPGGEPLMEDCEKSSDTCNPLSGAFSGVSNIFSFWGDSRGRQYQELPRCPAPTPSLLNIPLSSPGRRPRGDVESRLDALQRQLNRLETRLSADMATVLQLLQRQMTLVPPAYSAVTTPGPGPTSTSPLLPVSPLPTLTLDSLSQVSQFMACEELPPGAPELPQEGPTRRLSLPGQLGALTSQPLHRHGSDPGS

Row | SMILES | hERG current change (%, negative = inhibition) at 1uM
1 | O=C(CCCN1C(=O)/C(=C/c2ccc3c(c2)OCO3)SC1=S)Nc1ccc(C(=O)O)cc1 | 6.95%
2 | O=C(NNC(=S)NC(=O)c1ccccc1[N+](=O)[O-])c1ccccc1[N+](=O)[O-] | 15.8%
3 | CC(=O)Nc1ccc(NC(=O)CCCc2c[nH]c3ccccc23)cc1 | 11%
4 | CCC(=O)Nc1nnc(CCc2ccccc2)s1 | 15.6%
5 | C=CCn1c(COc2ccccc2-c2ccccc2)nnc1SCC(=O)NC(=O)NCc1ccco1 | 21.1%
6 | CCOC(=O)N1CCN(C(=O)C2CCN(S(=O)(=O)c3ccc(OCC)cc3)CC2)CC1 | 2.62%
7 | CC1=NCCN1S(=O)(=O)c1cccc([N+](=O)[O-])c1 | 16.5%
8 | O=C(C1CC1)N1CCc2cc(Br)cc(S(=O)(=O)NCc3ccccn3)c21 | 20%
9 | O=C(CSc1nc(-c2ccccc2)c(-c2ccccc2)[nH]1)NCc1ccco1 | 4.85%
10 | COc1ccc(OCc2cc(C(=O)N(C)Cc3cc(C4CC4)n[nH]3)no2)c(Cl)c1 | 10%
11 | COCC(C)NS(=O)(=O)c1ccc(NC(=O)C(Cc2ccccc2)NC(N)=O)cc1 (stereo not shown) | 2.58%
12 | COC(=O)c1ccc(CSc2nc3ccccc3[nH]2)o1 | 8.73%
13 | Cc1nn(Cc2ccccc2)c(Cl)c1C(=O)OCC(=O)Nc1cccc2ccccc12 | 7.04%
14 | O=C(O)c1c[nH]c2ccc(S(=O)(=O)N(CCCl)CCCl)cc12 | -3.23%
15 | Cc1cc(C=NCCO)c(C)n1-c1cc(Cl)ccc1Cl | 1.44%
16 | O=C(COC(=O)c1ccc(O)cc1)Nc1ccc(Cl)cc1C(=O)c1ccccc1 | 17.7%
17 | COc1ccc(NC2CCCN(C(=O)c3cccc(C(F)(F)F)c3)C2)cc1OC (stereo not shown) | 9.2%
18 | CS(=O)(=O)C1=NSC2=NC(=O)/C(=C\c3ccc(OS(=O)(=O)c4ccccc4)cc3)C(=N)N21 | 16.8%
19 | CCOc1ccc(OCc2ccc(C(=O)N3CCOCC3)cc2)cc1 | 15.7%
20 | CCOc1ccc(NC(=S)Nc2ccccc2C2(C)CC2)cc1 | 5.96%
21 | Cc1ccc(S(=O)(=O)Nc2ccc(C(=O)N3CCN(c4ccccc4O)CC3)cc2)cc1[N+](=O)[O-] | 8.13%
22 | O=C(CSc1nnc(NC(=O)c2c(F)cccc2F)s1)NCc1ccccc1 | 11.5%

Row | SMILES | hERG current change (%, negative = inhibition) at 1uM
23 | Cc1cc(NCCCn2ccnc2)n2nc(C)c(-c3ccccc3)c2n1 | -25.4%
24 | O=C(CNC(=O)c1cccs1)Nc1ccncc1 | 6.86%
25 | Cn1nc(OC(=O)Nc2ccccc2)cc1C(F)(F)F | 9.18%
26 | O=C(Cc1ccccc1Cl)Nc1cccc(S(=O)(=O)N2CCOCC2)c1 | 9.27%
27 | COc1ccc2c(c1)NC(c1ccc(N(C)C)cc1)c1cccn1-2 (stereo not shown) | 16%
28 | COc1ccccc1NC(=O)CSc1nnc(-c2ccccc2)o1 | 10.2%
29 | COc1ccccc1-c1coc2cc(OCC(=O)OCc3ccccc3)ccc2c1=O | 16.2%
30 | N/C(CC(=O)NC1CCCCC1)=N\OCC(=O)Nc1ccc(Cl)c(Cl)c1 | 2.36%
31 | Cl.O=C(C(c1ccccc1)c1ccccc1)N1CCN(CC(O)COc2ccccc2)CC1 (stereo not shown) | -2.46%
32 | O=C(Nc1cc(Cl)cc(Cl)c1)c1cccnc1 | 12.8%
33 | O=C(NCc1ccncc1)Nc1cc(Cl)ccc1Cl | 5.13%
34 | O=C(c1ccc([N+](=O)[O-])cc1)N1CCc2ccccc2C1 | -8.98%
35 | COc1ccc(S(=O)(=O)NC2CC2)cc1Br | 19.2%
36 | COc1ccc(N(C(=O)c2snc(C(N)=O)c2N)C(C(=O)NCc2ccccc2)c2ccc(F)cc2)c(OC)c1 (stereo not shown) | 6.39%
37 | CC(C)NC(=S)N/N=C/c1cc(Br)ccc1O | 5.01%
38 | CSc1ccccc1NC(=O)CN(C)C(=O)Cc1c[nH]c2ccccc12 | 4.94%
39 | COc1ccc(NC(=O)C(=O)NCCN2CCN(C(=O)c3ccc(C)cc3)CC2)cc1 | -28.6%
40 | CCOc1ccc(/C=N/OCC(=O)Nc2ccc(OCc3ccccc3)cc2)cc1OC | 11.4%
41 | O=C(CC1Oc2ccccc2NC1=O)NC1CC1 (stereo not shown) | 3.9%
42 | NS(=O)(=O)c1ccc(CCNC(=O)CN2CCN(Cc3cccc4ccccc34)CC2)cc1 | 8.33%
43 | O=[N+]([O-])c1c(NCCCO)cc(N2CCN(Cc3ccc4c(c3)OCO4)CC2)c2nonc12 | -1.28%
